“And” between values parts separate entries of the source, which are not always exact repeats. Identical values can stand only once. About 6,400 (1.6%) of roughly 410,000 compounds were called active. Inconclusive means that the source gave no clear call. Such entries were picked first, then a sample of the others. Calls follow the shape of the dose curve; as a rule, active = well fitted inhibition curve with a large enough effect; inconclusive = small, poorly fitted or top-dose-only effect; inactive = no such curve, though single readings can be large or run the other way. Potencies of inconclusive entries are doubtful fits and often do not repeat.
The molecules below were run against Glucagon-like peptide 1 receptor (Homo sapiens) (UniProt P43220) (assay: qHTS of GLP-1 Receptor Inverse Agonists (Inhibition Mode)). Conditions: HEK293 GLP-1R CRE-luciferase, luminescence, 24 h; Potency: GLP-1R form is constitutively active unless noted; activity change, negative = inhibition: at 38.3 µM (top of the series) unless noted.
UniProt P43220, sequence (P43220 whole entry, looked up): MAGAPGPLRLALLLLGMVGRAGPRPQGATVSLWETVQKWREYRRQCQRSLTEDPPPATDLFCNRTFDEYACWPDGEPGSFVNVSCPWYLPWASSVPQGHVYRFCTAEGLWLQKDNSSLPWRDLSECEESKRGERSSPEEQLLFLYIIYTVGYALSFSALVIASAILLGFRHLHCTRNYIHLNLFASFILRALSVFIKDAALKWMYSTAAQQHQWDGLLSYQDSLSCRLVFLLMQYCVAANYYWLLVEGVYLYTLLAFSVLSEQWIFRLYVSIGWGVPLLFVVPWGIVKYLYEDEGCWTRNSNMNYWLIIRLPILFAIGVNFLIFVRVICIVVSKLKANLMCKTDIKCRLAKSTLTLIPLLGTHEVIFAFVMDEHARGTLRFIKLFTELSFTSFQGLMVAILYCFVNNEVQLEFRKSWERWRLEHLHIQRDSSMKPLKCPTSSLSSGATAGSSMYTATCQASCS
In short: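 qHTS in 1536-well format: reporter HEK293 cells expressing constitutive GLP-1R activity in DMEM + 10% Nu serum, 24 hr with compounds at 37 deg C, luminescence read after 12 min with detection reagent.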
% is scaled to controls: 0 for no effect and ±100 for the full control effect; potency is read from the fitted curve at half-maximal effect; tags tell the direction and shape of the fitted curve.
Also: nearly all actives have a fitted effect of over 55% in size.

Structure (SMILES)	Potency	activity change, negative = inhibition
COc1cccc(C(c2nnnn2C2CCCCC2)N2CCC3(CC2)C(=O)NCN3c2ccccc2)c1OC (stereo not given)	inconclusive: 28.2 µM [inhibitor, single point]	
CC(N)Cc1c[nH]c2ccc(OCc3cccs3)cc12 (stereo not given)	inconclusive: 11.2 µM [inhibitor, single point]	
O=C(Nc1ccc2nc(SCC(=O)N3CCCc4ccccc43)sc2c1)c1ccccc1F	inconclusive: 5.62 µM [inhibitor, partial curve]	
Cn1cccc1CNCCc1ccc(F)cc1	inactive	
COc1ccccc1S(=O)(=O)N(C)C[C@@H]1Oc2cc(C#CCC(C)C)ccc2S(=O)(=O)N([C@H](C)CO)C[C@@H]1C	inconclusive: 11.2 µM [inhibitor, single point]	
CCOc1cccc(=NC2CCCCC2)c2c(C)[nH]c(C)c12	inconclusive: 28.2 µM [inhibitor, single point]	
Cc1nc2ccc(Nc3nc4cc(S(=O)(=O)N5CCOCC5)ccc4o3)cc2s1	inactive	
CCCCC(=O)N/N=C/c1c(O)n(CC)c(=S)n(CC)c1=O	inconclusive: 12.6 µM [inhibitor, partial curve, poor fit]	
CCn1nc(/C=C/c2ccccc2)nc2c(=O)n(C)c(=O)nc1-2	inconclusive: 2.82 µM [inhibitor, single point]	
COc1ccc(CNCCc2ccccc2F)c(OC)c1C	inconclusive: 10 µM [inhibitor, single point]	
CCc1ccc(-n2nc(C)c3c(C(=O)NCCc4ccc(OC)c(OC)c4)cc(C)nc32)cc1	inconclusive: 6.31 µM [inhibitor, partial curve, poor fit]	
C/C(=N\N1CCCCCC1)c1c(O)n(-c2ccc(C)cc2)c(=O)[nH]c1=O	inconclusive: 7.94 µM [inhibitor, partial curve, poor fit]	
O=C1NC(=O)N(c2ccccc2)C(=O)/C1=C/c1ccc(Sc2ccccc2)o1	inactive	
CCOC(=O)C(O)(c1ccc(N(CC)S(=O)(=O)c2ccccc2)cc1)C(F)(F)F (stereo not given)	inconclusive: 10 µM [inhibitor, partial curve, poor fit]	
C[n+]1c2cc(N)ccc2cc2ccc(N)cc21	inconclusive: 1.58 µM [inhibitor, full curve, poor fit] and inconclusive: 3.98 µM [inhibitor, full curve, poor fit]	
CCOc1ccc(CN(CCc2ccc3c(c2)OCO3)Cc2cc(OC)ccc2O)cc1	inconclusive: 28.2 µM [inhibitor, single point]	
CCCCCOc1ccc(C)cc1CN(CCCl)CCCl	inconclusive: 10 µM [inhibitor, single point]	
Cc1ccc(C(=O)Nc2nc3ccccc3[nH]2)cc1	active: 1.26 µM	
CCOc1cc2c(cc1OCC)-n1cccc1C(c1ccc(F)c(OC)c1)NC2 (stereo not given)	inconclusive: 28.2 µM [inhibitor, single point]	
c1ccc2c(N3CCNCC3)nsc2c1	inconclusive: 15.8 µM [inhibitor, partial curve, poor fit]	

Structure (SMILES)	Potency	activity change, negative = inhibition
COc1ccc(C(c2nnnn2C2CCCCC2)N2CCC3(CC2)C(=O)NCN3c2ccccc2)cc1 (stereo not given)	inconclusive: 28.2 µM [inhibitor, single point]	
NP(=O)(OCC(F)(F)F)Oc1ccccc1 (stereo not given)	inactive	
O=C(COc1ccc(Cl)cc1)N1CCN(C/C=C/c2ccccc2)CC1	inconclusive: 10 µM [inhibitor, partial curve, poor fit]	
CN1CCN(c2ccc([N+](=O)[O-])c(NCc3ccco3)c2)CC1	inconclusive: 8.91 µM [inhibitor, partial curve, poor fit]	
CC/C(=N\NC(=O)c1ccccc1O)c1c(O)n(C2CCCCC2)c(=O)[nH]c1=O	inconclusive: 3.98 µM [inhibitor, partial curve, poor fit]	
Oc1ccccc1-[n+]1c(-c2ccccc2)cc(-c2ccccc2)cc1-c1ccccc1	inconclusive: 12.6 µM [inhibitor, single point]	
C[C@@]1([C@@H](NP(=O)(c2ccccc2)c2ccccc2)c2ccccc2)C[C@H]1CCO	inconclusive: 31.6 µM [inhibitor, single point]	
Cc1cc(OCC(=O)N2CCN(CCc3ccncc3)CC2)ccc1Cl	inconclusive: 2.24 µM [inhibitor, full curve, poor fit]	
CN(C)C(CNC(=O)Cc1c(Cl)cccc1Cl)c1ccccc1 (stereo not given)	inconclusive: 10 µM [inhibitor, partial curve, poor fit]	
Cc1cccc(C2=NCC(=O)N(CC(=O)NCc3ccco3)c3sc4c(c32)CCCC4)c1	inconclusive: 12.6 µM [inhibitor, partial curve, poor fit]	
Cc1ccc(NC(=O)N(Cc2ccc3c(c2)OCO3)C2CCN(Cc3ccccc3)CC2)cc1C	inconclusive: 20 µM [inhibitor, partial curve, poor fit]	
c1ccc(CCc2ccc3n2Cc2cnnn2-c2ccccc2-3)cc1	active: 11.2 µM [setting not given]	
CCOC(=O)c1c(-n2c(C)cc(C=C3C(=O)NC(=S)NC3=O)c2C)sc2c1CCCC2	inconclusive: 7.08 µM [inhibitor, partial curve, poor fit]	
COc1ccc(-n2c(/C=C\c3ccccc3F)nc3ccccc3c2=O)c(OC)c1	inconclusive: 25.1 µM [inhibitor, single point]	
CCN1CCN(C(=O)Cc2coc3ccc4ccccc4c23)CC1	inconclusive: 28.2 µM [inhibitor, single point]	
COC(=O)C1=C(c2cc3ccccc3s2)C[C@@H]2CC[C@H]1N2C(=O)NC(C)C	inconclusive: 11.2 µM [inhibitor, partial curve, poor fit]	
COc1ccccc1N1CCN(CCc2ccccc2)CC1	inactive	
N#Cc1cc2c(nc1SCC(=O)Nc1ccc(C(F)(F)F)cc1)C1CCN2CC1	inactive	
CC(Cc1ccccc1)NCCC(=O)NC(C)Cc1ccccc1 (stereo not given)	inconclusive: 7.94 µM [inhibitor, partial curve, poor fit]	
Cc1ccccc1C(=O)Nc1ccc(C(=O)OCc2cc(=O)n3nc(C4CC4)sc3n2)cc1	inconclusive: 11.2 µM [inhibitor, partial curve, poor fit]	

Structure (SMILES)	Potency	activity change, negative = inhibition
CC1CCC(C)(NS(=O)(=O)OCC(Cl)(Cl)Cl)CC1 (stereo not given)	inconclusive: 22.4 µM [inhibitor, single point]	
CCC12C=CCN3CCC4(c5cc(Br)c(OC)cc5N(C)C4C(O)(C(=O)OC)C1OC(C)=O)C32 (stereo not given)	inconclusive: 5.62 µM [inhibitor, full curve, poor fit]	
O=C(Nc1ccc(Cl)c(C(F)(F)F)c1)NC1CC2CCCC(C1)N2Cc1ccccc1 (stereo not given)	active: 2.51 µM	
CC/C(=C(\c1ccc(O)cc1)c1ccc(OCCN(C)C)cc1)c1ccccc1	inconclusive: 7.94 µM [inhibitor, partial curve, poor fit]	
COC(=O)C1=CO[C@@H](C)[C@@H]2CN(CCc3c[nH]c4ccccc34)CC[C@H]12	inconclusive: 11.2 µM [inhibitor, partial curve, poor fit]	
COc1ccc2c(c1)c(CCN)c(C)n2Cc1ccccc1	inconclusive: 10 µM [inhibitor, partial curve, poor fit]	
C=CC[n+]1c(-c2ccc(C)cc2)csc1Nc1c(C)n(C)n(-c2ccccc2)c1=O	inconclusive: 10 µM [inhibitor, partial curve, poor fit]	
Cc1ncc(CC(=O)n2cc(C(=O)c3cc(Cl)ccc3O)cn2)s1	inconclusive: 28.2 µM [inhibitor, single point]	
CCn1c(C)c(C(=O)NCCc2ccccc2)c2cc(OC)ccc21		inconclusive: -37% [inhibitor] [at 38.3 µM, GLP-1R form is constitutively active]
Cc1cccc(C)c1OP(N)(=O)Oc1c(C)cccc1C	inconclusive: 31.6 µM [inhibitor, single point]	
CCOC(=O)C1=C(C)N(C)C2(C)CC1c1ccccc1O2 (stereo not given)	inconclusive: 0.501 µM [inhibitor, full curve, poor fit]	
O=C(Nc1c(Cl)cccc1Cl)Oc1cccc2cccnc12	inconclusive: 28.2 µM [inhibitor, single point]	
CC1=C(C(=O)Nc2ccccc2)SCCO1	inactive	
CC(=O)C1C(=O)NC23CCCCC2C1c1ccccc1O3 (stereo not given)	inconclusive: 28.2 µM [inhibitor, single point]	
Oc1cc(Cl)c(Cl)c(Cl)c1Cl	inconclusive: 7.94 µM [inhibitor, partial curve]	
Cc1ccc(S(=O)(=O)N(C)C[C@H]2Oc3cc(Br)ccc3S(=O)(=O)N([C@H](C)CO)C[C@H]2C)cc1	inconclusive: 28.2 µM [inhibitor, single point]	
CCOC(=O)C1(CCCc2ccccc2)CCN(C2CCCC2)CC1	inconclusive: 25.1 µM [inhibitor, single point]	
Fc1cccc(-c2ccc3c(c2)CN(C(=S)NCCc2ccccc2)Cc2cnnn2-3)c1	inconclusive: 28.2 µM [inhibitor, single point]	
CC(C)CC(=O)Nc1ccc(C(=O)Cn2c(=O)oc3ccccc32)cc1	inconclusive: 12.6 µM [inhibitor, partial curve, poor fit]	
COP(=O)(OC)c1nc(-c2cccc3ccccc23)oc1NCCc1ccccc1	inconclusive: 11.2 µM [inhibitor, partial curve, poor fit]	

— PubChem BioAssay AID624417 (National Center for Advancing Translational Sciences (NCATS), 2012)
